Reference: paper PMC9911399, “Two distinct binding modes provide the RNA-binding protein RbFox with extraordinary sequence specificity”
Residue numbers refer to the chain shown, from its start. The list shows a part of the results.

T1: RBFOX1 RRM (Homo sapiens, UniProt Q9NWB1 109-208)
T1 sequence: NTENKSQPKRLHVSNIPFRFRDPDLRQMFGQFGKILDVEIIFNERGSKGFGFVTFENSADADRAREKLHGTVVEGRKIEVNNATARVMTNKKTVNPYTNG

B1: AGUCUCA (DNA:RNA)
RNA: GGGAGACCGGAAUUCAGAUUGUCCAGUCUCAUUAAAUCCCGUCGUAGCCACCA
DNA 1: CAATCTGAATTCCGGTCTCCC
DNA 2: TGGTGGCTACGACGGGATT
B2: CGGUUCC (DNA:RNA)
RNA: B1 RNA with A25C, U27G, C28U, A31C
DNA 1: CAATCTGAATTCCGGTCTCCC
DNA 2: TGGTGGCTACGACGGGATT
B3: CACUCUA (DNA:RNA)
RNA: B1 RNA with A25C, G26A, U27C, C28U, U29C, C30U
DNA 1: CAATCTGAATTCCGGTCTCCC
DNA 2: TGGTGGCTACGACGGGATT
B4: CUCCCGC (DNA:RNA)
RNA: B1 RNA with A25C, G26U, U27C, U29C, C30G, A31C
DNA 1: CAATCTGAATTCCGGTCTCCC
DNA 2: TGGTGGCTACGACGGGATT
B5: UAGGAGA (DNA:RNA)
RNA: B1 RNA with A25U, G26A, U27G, C28G, U29A, C30G
DNA 1: CAATCTGAATTCCGGTCTCCC
DNA 2: TGGTGGCTACGACGGGATT
B6: UUCUGAG (DNA:RNA)
RNA: GGGAGACCGGAAUUCAGAUUGUCCUUCUGAGUUAAAUCCCGUCGUAGCCACCA
DNA 1: CAATCTGAATTCCGGTCTCCC
DNA 2: TGGTGGCTACGACGGGATT
B7: CUCGAAU (DNA:RNA)
RNA: B6 RNA with U25C, U28G, G29A, G31U
DNA 1: CAATCTGAATTCCGGTCTCCC
DNA 2: TGGTGGCTACGACGGGATT
B8: CUAGUUA (DNA:RNA)
RNA: B1 RNA with A25C, G26U, U27A, C28G, C30U
DNA 1: CAATCTGAATTCCGGTCTCCC
DNA 2: TGGTGGCTACGACGGGATT
B9: GCAGAGA (DNA:RNA)
RNA: B1 RNA with A25G, G26C, U27A, C28G, U29A, C30G
DNA 1: CAATCTGAATTCCGGTCTCCC
DNA 2: TGGTGGCTACGACGGGATT

What follows are binders tested against T1, RBFOX1 RRM (assay: EMSA; HiTS-Eq, 1 nM pool, 10 min; buffer printed only for the single-RNA assays: 10 mM Tris pH 7.5, 150 mM NaCl, 3.4 mM EDTA, 0.001% NP-40, 30 C). Conditions: tags: His6 N-terminal (pET28a); label: 5' 32P.
Outline: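 Relative association constants, normalised to the cognate motif, were derived by comparing read counts of each RNA species with those of the control reaction. The RNA sequenced was the free fraction, separated by 8% native PAGE after a 10 min equilibration in 50 µL of 1 nM 5′-radiolabelled RNA (7 randomized nucleotides) with increasing concentrations of purified wild-type or mutant RbFox RRM.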

Binder | binding signal
B1 | 0.00863 KA relative to UGCAUGU
B2 | 0.0273 KA relative to UGCAUGU
B3 | 0.00266 KA relative to UGCAUGU
B4 | 0.00937 KA relative to UGCAUGU
B5 | 0.00599 KA relative to UGCAUGU
B6 | 0.0217 KA relative to UGCAUGU
B7 | 0.0088 KA relative to UGCAUGU
B8 | 0.00309 KA relative to UGCAUGU
B9 | 0.0131 KA relative to UGCAUGU
